System: cytokines and chemokines in lung homogenates
Conditions: mouse, in vivo

SMILES: Cc1cc(-c2noc(C(F)(F)F)n2)ccc1OCCCc1cc(C(=O)N(C)C)no1 [Compound 8, N,N-dimethyl-5-(3-{2-methyl-4-[5-(trifluoromethyl)-1,2,4-oxadiazol-3-yl]phenoxy}propyl)isoxazole-3-carboxamide]
- lung concentration of IL-1α: increase
- lung concentration of IL-1α vs placebo: increased
- lung concentration of IL-1β: increase
- lung concentration of IL-1β vs placebo: increased
- lung concentration of IL-5 vs placebo: increased
- lung concentration of IL-6: increased
- lung concentration of IL-10: increase

Source: patent US12583848B2, “Isoxazole-3-carboxamide derivatives and their use for treatment of diseases caused by virus infection” (Collaborations Pharmaceuticals, Inc., priority 2019, dated 2026)
